# Measured values: the supplement of paper PMC4967469
# IC50 is the fitted dose that halves viability relative to control wells, and lower means more sensitive; a limit (>, <) means that the fit lies beyond the doses tested. The AUC spans the tested range (256-fold, ending at the top dose) of the same fit: 1 means no effect, lower means more sensitive. For some of these results: Where the top dose is marked as inferred, it was derived from the fitted curves, not read from the paper. For some of these results: Drugs with an entry number were screened twice under separate entries, and the two screens often disagree.
# Columns and labels:
# Test in all cases: Viability of human cancer cell lines after 72 h of drug (GDSC screen)
# TW-37 = compound: CC(C)c1ccccc1Cc1cc(C(=O)Nc2ccc(S(=O)(=O)c3ccccc3C(C)(C)C)cc2)c(O)c(O)c1O [TW-37]; details: top dose 5 µM
# Experimental: (§1)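 Human cancer cell lines in 384-well plates, medium with 10% serum, drug for 72 h over a 256-fold dose range (nine 2-fold or five 4-fold steps up to the top dose). Adherent lines were fixed and stained with the nucleic acid dye Syto60, suspension lines read with resazurin; signal relative to control wells, capped at 0 and 100%. One two-parameter sigmoid per drug and line, fitted in a mixed model over all curves with the slope shared within a line.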
# MP470 = compound: S=C(NCc1ccc2c(c1)OCO2)N1CCN(c2ncnc3c2oc2ccccc23)CC1 [MP470]; details: top dose 20 µM; top dose inferred
# Experimental: as §1
# Nilotinib = compound: Cc1cn(-c2cc(NC(=O)c3ccc(C)c(Nc4nccc(-c5cccnc5)n4)c3)cc(C(F)(F)F)c2)cn1 [Nilotinib]; details: top dose 2 µM
# Experimental: as §1
# KIN001-270 = compound: Cc1ccc(Nc2cc(-c3cccc(N4C(=O)c5ccccc5C4=O)c3)ncn2)cc1NS(C)(=O)=O [KIN001-270]; details: top dose 20 µM; top dose inferred
# Experimental: as §1
# Gemcitabine = compound: Nc1ccn([C@@H]2O[C@H](CO)[C@@H](O)C2(F)F)c(=O)n1 [Gemcitabine]; details: top dose 1.024 µM
# Experimental: as §1
# Bicalutamide = compound: CC(O)(CS(=O)(=O)c1ccc(F)cc1)C(=O)Nc1ccc(C#N)c(C(F)(F)F)c1 [Bicalutamide]; details: top dose inferred
# Experimental: as §1
# LFM-A13 = compound: C/C(O)=C(\C#N)C(=O)Nc1cc(Br)ccc1Br [LFM-A13]; details: top dose 16 µM; top dose inferred
# Experimental: as §1
# AUY922 = compound: CCNC(=O)c1noc(-c2cc(C(C)C)c(O)cc2O)c1-c1ccc(CN2CCOCC2)cc1 [AUY922]; details: top dose 0.256 µM; top dose inferred
# Experimental: as §1
# T0901317 = compound: O=S(=O)(c1ccccc1)N(CC(F)(F)F)c1ccc(C(O)(C(F)(F)F)C(F)(F)F)cc1 [T0901317]; details: top dose 10.24 µM; top dose inferred
# Experimental: as §1
# [1] = top dose 1.024 µM, screen: GDSC drug entry 150
# [2] = top dose 10 µM, screen: GDSC drug entry 1502
Cell Line,AUC (TW-37),IC50 (TW-37) [nM],AUC (MP470),IC50 (MP470) [nM],AUC (Nilotinib),IC50 (Nilotinib) [nM],AUC (KIN001-270),IC50 (KIN001-270) [nM],AUC (Gemcitabine),IC50 (Gemcitabine) [nM],AUC (Bicalutamide; [1]),IC50 (Bicalutamide; [1]) [nM],AUC (Bicalutamide; [2]),IC50 (Bicalutamide; [2]) [nM],AUC (LFM-A13),IC50 (LFM-A13) [nM],AUC (AUY922),IC50 (AUY922) [nM],AUC (T0901317),IC50 (T0901317) [nM]
"EW-7 (Ewing sarcoma, semi-adherent)",0.873,3820,0.527,1460,0.984,> 2000,0.935,> 20000,0.033,< 4,0.986,> 1020,0.982,> 10000,0.91,> 16000,0.439,11.2,0.99,> 10200
"FADU (head and neck, adherent)",0.598,573,0.946,> 20000,0.988,> 2000,0.983,> 20000,0.445,45.6,0.988,> 1020,,,0.963,> 16000,0.624,34.7,0.986,> 10200
"FTC-133 (thyroid, adherent)",0.613,660,0.237,198,0.986,> 2000,0.948,> 20000,0.586,113,0.986,> 1020,0.971,> 10000,0.982,> 16000,0.94,> 256,0.957,> 10200
"FU97 (stomach, adherent)",0.55,429,0.85,15800,0.966,> 2000,0.948,> 20000,0.954,> 1020,0.986,> 1020,0.964,> 10000,0.922,> 16000,0.588,28.1,0.982,> 10200
"FU-OV-1 (ovary, adherent)",0.677,1140,0.939,> 20000,0.977,> 2000,0.981,> 20000,0.969,> 1020,0.975,> 1020,0.979,> 10000,0.912,> 16000,0.77,129,0.971,> 10200
"G-361 (melanoma, adherent)",0.411,180,0.868,17000,0.988,> 2000,0.988,> 20000,0.243,12.1,,,0.981,> 10000,0.975,> 16000,0.53,19.3,0.988,> 10200
"G-402 (soft tissue, adherent)",0.419,174,0.892,> 20000,0.877,> 2000,0.951,> 20000,0.168,4.15,0.977,> 1020,0.945,> 10000,0.947,> 16000,0.581,28.7,0.956,> 10200
"GMS-10 (glioma, adherent)",0.564,467,0.974,> 20000,0.988,> 2000,0.987,> 20000,0.966,> 1020,0.981,> 1020,,,0.976,> 16000,0.686,53,0.988,> 10200
"H4 (glioma, adherent)",0.545,415,0.959,> 20000,0.959,> 2000,0.979,> 20000,0.161,5.99,0.977,> 1020,0.964,> 10000,0.932,> 16000,0.494,15.4,0.968,> 10200
"H2369 (mesothelioma, adherent)",0.504,321,0.875,> 20000,0.981,> 2000,0.978,> 20000,0.634,152,0.987,> 1020,0.981,> 10000,0.961,> 16000,0.468,13.1,0.981,> 10200
"H2373 (mesothelioma, adherent)",0.507,327,0.949,> 20000,0.983,> 2000,0.963,> 20000,0.636,168,0.983,> 1020,0.964,> 10000,0.887,> 16000,0.722,81.1,0.957,> 10200
"H2461 (mesothelioma, adherent)",0.614,697,0.974,> 20000,0.978,> 2000,0.98,> 20000,0.84,979,0.983,> 1020,0.969,> 10000,0.955,> 16000,0.781,135,0.983,> 10200
"H2595 (mesothelioma, adherent)",0.414,165,0.977,> 20000,0.954,> 2000,0.981,> 20000,0.528,78.6,0.981,> 1020,0.977,> 10000,0.943,> 16000,0.673,59.2,0.981,> 10200
"H2722 (mesothelioma, adherent)",0.692,1210,0.977,> 20000,0.984,> 2000,0.98,> 20000,0.772,470,0.984,> 1020,0.978,> 10000,0.951,> 16000,0.603,32.4,0.984,> 10200
